# Key:
# [1] = molecular target: T1, purified recombinant PRMT5 (human, UniProt O14744-1); experiment: co-IP; in vitro Co-IP: rPRMT5 and rGST-ENO1 purified from bacteria incubated with each other in vitro; which one was precipitated is not told; settings: both partners purified
# T1 construct: Human PRMT5, cDNA NM_006109.5 cloned into pETM3C; also called rPRMT5; rPRMT5 WT; source: bacteria, purified
# [2] = molecular target: the molecule itself; experiment: cross-linking; purified recombinant GST-ENO1, with or without prior in vitro methylation by PRMT5, 0.0025% glutaraldehyde, room temperature, 5 min, 20 mM Tris-HCl pH 7.5, 100 mmol/L NaCl, 5% glycerol, 0.2 mmol/L EDTA, 2 mmol/L DTT; SDS-PAGE, ENO1 antibody; monomer to dimer
binding result [1],Binder,stoichiometry N [2],binding result [2]
binds,"purified recombinant GST-tagged ENO1 (enzyme, human, Human ENO1, cDNA NM_001428.5 cloned into pETM3C; also called rGST-ENO1; rGST-ENO1 WT; source: bacteria, purified; not shown: GST, N-terminal, kept) MSILKIHAREIFDSRGNPTVEVDLFTSKGLFRAAVPSGASTGIYEALELRDNDKTRYMGKGVSKAVEHINKTIAPALVSKKLNVTEQEKIDKL[skipping about 350 residues]",2,–
–,"purified recombinant GST-tagged ENO1 methylated in vitro by PRMT5 (enzyme, human, symmetric dimethylarginine (SDMA) at R9, Human ENO1, cDNA NM_001428.5 cloned into pETM3C; also called rGST-ENO1 WT incubated with rPRMT5; ENO1 methylated by recombinant PRMT5 or Flag-PRMT5; source: bacteria, purified, then in vitro methylation with rPRMT5 or Flag-PRMT5 and SAM; not shown: GST, N-terminal, kept) MSILKIHAREIFDSRGNPTVEVDLFTSKGLFRAAVPSGASTGIYEALELRDNDKTRYMGKGVSKAVEHINKTIAPALVSKKLNVTEQEKIDKL[skipping about 350 residues]",–,binds
